Measured values reported in PubChem BioAssay AID504832 (National Center for Advancing Translational Sciences (NCATS), 2011).
Hit rate of the full screen: of about 310,000 compounds, about 18,000 (5.8%) were called active. Inconclusive results, whose numbers are uncertain, are shown with a selection of clear calls. Calls follow the shape of the dose curve; as a rule, active = well fitted inhibition curve with a large enough effect; inconclusive = small, poorly fitted or top-dose-only effect, or another doubt; inactive = no such curve, though single readings can be large or run the other way. No potency is given beside an inconclusive call; the fits are too rough.
Potency is read from the fitted curve at half-maximal effect; tags tell the direction and shape of the fitted curve.

Assay: Primary qHTS for delayed death inhibitors of the malarial parasite plastid, 48 hour incubation
Conditions: P. falciparum luciferase growth in erythrocytes; series mostly up to 28.7 µM
Procedure, shortened: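 In quantitative HTS format, infected erythrocytes bearing luciferase-reporter parasites were treated for a single generation at 37 C. Luminescence after adding detection reagent served as the growth measure.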
With `Cc1onc(-c2ccccc2)c1C(=O)Nc1ncc([N+](=O)[O-])s1` the Potency was inconclusive [inhibitor, single point].
For `CCOc1cc(CNc2ccc(N3CCCCC3)cc2)cc(Br)c1OCC(=O)NC(C)(C)C`, the Potency was inconclusive [inhibitor, partial curve].
With `CCCc1[nH]nc2c1C(c1ccccc1OC)C(C#N)=C(N)O2` (centres undefined) the Potency was “inactive”.
In the case of `CCOc1ccc2ccccc2c1C1NC(=O)N(C)C(C)=C1C(=O)OCCOC` (centres undefined), the Potency is reported as “inactive”.
For `Nc1nnc(CC(=O)N/N=C/c2ccc(-c3cccc(C(=O)O)c3)o2)s1`, the Potency was “inactive”.
With `Cc1cccc(-c2nnc3sc(-c4ccccc4)nn23)c1` the Potency was “inactive”.
For `O=C(COc1ccc(S(=O)(=O)N2CCCC2)cc1)N1CCN(c2ccccc2F)CC1`, the Potency was inconclusive [inhibitor, full curve].
For `COc1ccc(N(Cc2cc(=O)[nH]c3ccccc23)C(=O)c2ccco2)cc1`, the Potency was inconclusive [inhibitor, full curve, poor fit].
For `N#Cc1cc2cc3c(cc2nc1NCCNC(=S)NCCCN1CCOCC1)OCO3`, the Potency was inconclusive [inhibitor, single point].
With `COC(=O)c1cccnc1-n1c(=O)c2cccnc2n(CC(=O)Nc2ccc(Br)cc2)c1=O` the Potency was inconclusive [inhibitor, single point].
In the case of `Clc1cccc(CSC2=NCCCN2)c1`, the Potency is reported as inconclusive [inhibitor, partial curve, poor fit].
With `Cc1ccc(SCC(=O)Nc2ccccc2C(=O)O)cc1` the Potency was “inactive”.
For `CC(C)c1ccc(NC(=S)N(C)CCc2ccccn2)cc1`, the Potency was “inactive”.
In the case of `COCc1c(C(=O)N2CCN(S(=O)(=O)c3ccccc3Cl)CC2)oc2ccccc12`, the Potency is reported as active: 11.7 µM.
For `CCNC(=S)N1CCCC(c2nc3ccc(C)cc3[nH]2)C1` (centres undefined), the Potency was “inactive”.
In the case of `COc1ccc(CCNC(=O)c2ccccc2NC(=O)C2=C(C)OCCS2)c(OC)c1`, the Potency is reported as inconclusive [inhibitor, single point].
In the case of `Cc1cc(C(=O)OCC(=O)N2c3ccccc3NC(=O)C2(C)C)c(C)n1-c1ccccc1`, the Potency is reported as inconclusive [inhibitor, single point].
For `C=CCOc1ccc(/C=C/C(=O)OCC(=O)N2CCCc3ccccc32)cc1`, the Potency was inconclusive [inhibitor, single point].
For `NC(=O)[C@H]1CC2(CC(c3cccc(NC(=O)[C@H]4CCC(=O)N4)c3)=NO2)CN1C(=O)c1cc([N+](=O)[O-])cc([N+](=O)[O-])c1` (some centres undefined), the Potency was “inactive”.
For `CC(Sc1nnnn1-c1ccccc1)C(=O)Nc1ccc(Cl)cn1` (centres undefined), the Potency was inconclusive [inhibitor, single point].
With `COc1ccc(S(=O)(=O)N(Cc2ccccc2)c2ccccc2C(=O)N2CCOCC2)cc1` the Potency was inconclusive [inhibitor, partial curve].
For `Cc1ccc(C(NC(=O)N2CCCC2)C(Cl)(Cl)Cl)cc1F` (centres undefined), the Potency was inconclusive [inhibitor, partial curve].
With `CCC(C)n1c(-c2ccco2)nc2nc3ccccc3nc21` (centres undefined) the Potency was inconclusive [inhibitor, single point].
In the case of `CCOC(=O)C1=C(N)Oc2cc(C)oc(=O)c2C12C(=O)N1c3c(cc(OC)cc32)C(C)=CC1(C)C` (centres undefined), the Potency is reported as inconclusive [inhibitor, single point].
In the case of `CSC1=NC(C)(C)C=C(/C=C/c2c(Cl)cccc2Cl)N1`, the Potency is reported as inconclusive [inhibitor, partial curve].
In the case of `CCc1sc(C(=O)NCCc2ccc(S(N)(=O)=O)cc2)cc1Br`, the Potency is reported as “inactive”.
For `CCOC(=O)c1nn(-c2ccc(F)cc2)c2c1CC/C2=C/c1ccccc1`, the Potency was “inactive”.
In the case of `Cc1ccc(CN2C(=O)CCC2C(=O)NCCN(CC(C)C)CC(C)C)cc1` (centres undefined), the Potency is reported as inconclusive [inhibitor, partial curve, poor fit].
In the case of `O=C1c2cccnc2C(Nc2ccc(Br)cc2Br)N1Cc1cccs1` (centres undefined), the Potency is reported as inconclusive [inhibitor, single point].
In the case of `COc1cc(CC(NC(C)=O)C(=O)NC2CCN(c3nc(OC)nc(OC)n3)CC2)cc(OC)c1` (centres undefined), the Potency is reported as active: 13.1 µM.
With `N#CC1=C(SCc2ccccc2)NC(=O)CC1c1ccco1` (centres undefined) the Potency was “inactive”.
In the case of `CN(C)C1=NCCN1CCCCc1ccccc1`, the Potency is reported as inconclusive [inhibitor, single point].
With `CCCOc1ccc(Cn2cnc3ccccc32)cc1` the Potency was inconclusive [inhibitor, single point].
In the case of `Cc1cc(C(=O)COC(=O)c2ccc(F)cc2F)c(C)n1C1CC1`, the Potency is reported as “inactive”.
In the case of `CCC1(C)Cc2c(C#N)c(N)sc(=S)c2CO1` (centres undefined), the Potency is reported as inconclusive [inhibitor, single point].
In the case of `COC(=O)CCC(=O)OC1(C)C(=O)C=C2C=C(C3CC3)N(C3CCCCC3)C=C2C1=O` (centres undefined), the Potency is reported as inconclusive [inhibitor, single point].
With `O=c1ccn(Cc2ccccc2)cc1` the Potency was “inactive”.
In the case of `COCCN(C)Cc1nc(C(c2ccccc2)c2ccccc2)no1`, the Potency is reported as inconclusive [inhibitor, full curve, poor fit].
With `Cc1cccn2c(=O)c(/C=C(\C#N)S(=O)(=O)c3ccccc3)c(N3CCN(c4ccccc4)CC3)nc12` the Potency was inconclusive [inhibitor, single point].
In the case of `C=CCOc1ccc(/C=C/C(=O)OCC(=O)NCc2cccs2)cc1`, the Potency is reported as “inactive”.
With `CC(=O)Oc1c(Cl)c(N2CCOCC2)c(OC(C)=O)c2ccccc12` the Potency was inconclusive [inhibitor, single point].
For `COc1ccc(C)cc1S(=O)(=O)Nc1ccc(F)c(Cl)c1`, the Potency was inconclusive [inhibitor, partial curve, poor fit].
In the case of `CC(C)CCNC(=O)c1cnn2c(C(F)(F)F)cc(-c3ccco3)nc12`, the Potency is reported as inconclusive [inhibitor, full curve].
With `CCCCn1c(NCc2ccccc2NS(=O)(=O)c2ccc(C)cc2)nc2ccccc21` the Potency was inconclusive [inhibitor, single point].
With `Cc1ccc(CN(C(=O)c2cc(=O)c3cc(C)cc(C)c3o2)C2CCS(=O)(=O)C2)cc1` (centres undefined) the Potency was active: 3.29 µM.
With `CC(C)C[C@@H](NC(=O)[C@@H](Cc1ccccc1)NC(=O)c1cnccn1)B(O)O` the Potency was active: 0.12 µM.
For `C=CCNC(=O)c1onc(CSc2ccc(F)cc2)c1C(=O)NCC=C`, the Potency was inconclusive [inhibitor, single point].
For `CC1=NN(/C(=N\c2nnc(C)s2)Nc2ccc(C)cc2)[C@H](c2ccc(C)cc2)S1`, the Potency was active: 10.4 µM.
With `COc1ccc(CCNC(=O)C2CCCN(S(=O)(=O)c3cccc4nonc34)C2)cc1OC` (centres undefined) the Potency was inconclusive [inhibitor, single point].
In the case of `CCCSC1=C(C#N)C(c2cccs2)C(C(=O)Nc2ccccc2)=C(C)N1` (centres undefined), the Potency is reported as active: 8.28 µM.
In the case of `CCOC(=O)c1sc(NC(=O)CSc2nc3c(c(=O)n2-c2ccc(C)cc2)SCC3)c(C(=O)OCC)c1C`, the Potency is reported as inconclusive [inhibitor, full curve].
In the case of `CN=c1scc(C)n1/N=C/c1ccc(O)cc1O`, the Potency is reported as “inactive”.
In the case of `Cc1cc(C(=O)CSc2ncn[nH]2)c(C)n1-c1cccc(S(=O)(=O)N2CCOCC2)c1`, the Potency is reported as “inactive”.
In the case of `O=C(Oc1cccc(/C=N/Nc2nc(N3CCOCC3)nc(N3CCOCC3)n2)c1)c1ccco1`, the Potency is reported as “inactive”.
In the case of `C/C(=N\NC(=O)c1c(Br)c(C)nn1C)c1cccc(NC(=O)c2ccccc2C)c1`, the Potency is reported as “inactive”.
With `Cc1nc(NC(=O)/C=C/c2ccccc2)sc1C(=O)Nc1ccc(Cl)cc1` the Potency was inconclusive [inhibitor, partial curve, poor fit].
For `CCOC(=O)c1ccc(NC(=S)N(CCCN2CCN(C)CC2)Cc2cccs2)cc1`, the Potency was inconclusive [inhibitor, single point].
With `O=C(O)C1CCN(c2ccc(S(=O)(=O)N3CCCCC3)cc2[N+](=O)[O-])CC1` the Potency was “inactive”.
With `COc1cccc(NC(=S)NC2CC(C)(C)NC(C)(C)C2)c1` the Potency was “inactive”.
For `S=C(NCCc1ccccc1)Nc1ccccc1N1CCOCC1`, the Potency was inconclusive [inhibitor, partial curve].
In the case of `O=S(=O)(c1ccc(Cl)cc1)N1c2ccccc2Oc2nc3ccccc3nc21`, the Potency is reported as inconclusive [inhibitor, single point].
For `COc1ccc2c(c1)OC(C)(C)C(c1ccccc1)C2c1ccc(OCCN2CCCC2)cc1` (centres undefined), the Potency was active: 1.69 µM.
In the case of `O=c1c(Cc2c(F)cccc2Cl)c(O)ccn1Cc1ccc(F)cc1`, the Potency is reported as inconclusive [inhibitor, partial curve].
With `Cc1ccc(C)c(N2CCN(C(=O)CCS(=O)(=O)c3ccc4c(c3)NC(=O)C(C)S4)CC2)c1` (centres undefined) the Potency was inconclusive [inhibitor, single point].
In the case of `CCOC(=O)c1c(CSc2ccccc2)n(C)c2ccc(O)cc12`, the Potency is reported as inconclusive [inhibitor, partial curve, poor fit].
In the case of `Cc1ccc(NC(=O)CCC(=O)NNC(=O)Nc2cccc(Cl)c2)c(C)c1`, the Potency is reported as inconclusive [inhibitor, partial curve, poor fit].
With `Cc1cccn2c(=O)c3cc(C(N)=S)c(=N)n(CCCN4CCOCC4)c3nc12` the Potency was inconclusive [inhibitor, single point].
For `O=C(Nc1ccc(Cl)c([N+](=O)[O-])c1)c1ccc(NCCCN2CCOCC2)c([N+](=O)[O-])c1`, the Potency was active: 14.7 µM.
For `Cc1onc(-c2ccccc2)c1C(=O)Nc1ccccc1N1CCOCC1`, the Potency was inconclusive [inhibitor, partial curve].
